Among all 420,000 compounds or so, about 50,000 (12%) were called active. The shares of active, inactive and inconclusive entries below differ from those in the screen. Calls follow the shape of the dose curve; as a rule, active = well fitted inhibition curve with a large enough effect; inconclusive = small, poorly fitted or top-dose-only effect; inactive = flat fitted curve, though single readings scatter. No potency is given beside an inconclusive call; the fits are too rough.
Experiment: qHTS for Inhibitors of human tyrosyl-DNA phosphodiesterase 1 (TDP1): qHTS in cells in presence of CPT; also: nearly all actives have a fitted effect of over 55% in size
Conditions: chicken DT40 Tdp1-/-;hTDP1 cells + 20 nM CPT, ATP luminescence, 48 h; activity change, negative = growth inhibition: at 46.2 µM (top of the series) unless noted
Outline: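 Cell growth measured by CellTiter-Glo luminescence after a minimum 48 h, 37 C compound exposure with 20 nM CPT in Tdp1-knockout DT40 cells stably expressing hTDP1, seeded 400/well; qHTS titration format.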
For O=C1C=C(c2ccc(OC(F)(F)F)cc2)C[C@@H](c2ccc(F)cc2)C1, the Potency was inconclusive [inhibitor, single point].
In the case of COc1ccc(N2C(=O)C(CN3CCCCC3)C2c2ccccc2)cc1 (centres undefined), the Potency is reported as inconclusive [inhibitor, partial curve, poor fit].
In the case of COc1ccc(Nc2c(-c3ccsc3)nc3nc(C)cc(C)n23)cc1, the Potency is reported as inconclusive [inhibitor, single point].
For Cc1sc2nc(CSCC(=O)N(CCC#N)c3ccccc3)[nH]c(=O)c2c1C, the Potency was active: 18.4 µM.
For Cc1cccc(NC(=O)N2CCC(NC(=O)C3CCCCC3)CC2)c1, the “activity change, negative = growth inhibition” value was inactive: -4.55%.
With O=C(Cc1ccccc1)Nc1cccc(N2C(=O)C=CC2=O)c1 the Potency was active: 5.17 µM.
For O=C(Nc1nnc(-c2ccc(F)cc2)o1)c1ccco1, the Potency was inconclusive [inhibitor, single point].
With O=C(Oc1cccc2cccnc12)c1ccc2c(c1)OCCO2 the Potency was active: 0.651 µM.
With CC(NC(=O)c1cn(C)c2ccc(S(=O)(=O)N3CCCC3)cc2c1=O)c1ccccc1 (centres undefined) the Potency was inconclusive [inhibitor, single point].
With NNC(=O)c1cc2c(ccc3ccccc32)o1 the Potency was inconclusive [inhibitor, single point].
For O=c1[nH]cc(CCc2ccccc2)c(=O)[nH]1, the “activity change, negative = growth inhibition” value was inactive: -15.8%.
With CCSc1nc2ccccc2c(OCc2cc(C(=O)OC)ccc2OC)c1C(=O)OC the Potency was active: 18.4 µM.
With COc1ccc(-c2cc(C)no2)cc1S(=O)(=O)NCCc1ccco1 the “activity change, negative = growth inhibition” value was inactive: -24.3%.
In the case of Nc1nc(N)c2c(n1)CN(Cc1ccc(Cl)cc1)C2, the Potency is reported as inconclusive [inhibitor, single point].
With COc1ccc([C@@H](C)NC(=O)CCc2nnc(-c3cc(C)on3)o2)cc1 the “activity change, negative = growth inhibition” value was inactive: -13.5%.
With COCC(=O)Nc1cc(C(=O)Nc2ccccc2C)ccc1Cl the “activity change, negative = growth inhibition” value was inactive: -15%.
In the case of Cc1ccc(NC(=O)c2ncn(CC(=O)N[C@H](CO)Cc3c[nH]c4ccccc34)n2)cc1C, the “activity change, negative = growth inhibition” value is reported as inactive: 4%.
For Cc1ccc(S(=O)(=O)N2CCOCC2)cc1NC(=O)c1cc2c(s1)CCC2, the Potency was inconclusive [inhibitor, single point].
With CCN(CC)CCCNC(=O)Cn1cnc2sc(C)c(S(=O)(=O)N3CCC(C)CC3)c2c1=O the “activity change, negative = growth inhibition” value was inactive: 12.1%.
With CN(C(=O)CNC(=O)c1ccc(Br)o1)C1CCCCC1 the “activity change, negative = growth inhibition” value was inactive: 16.2%.
With CCN(c1cccc(C)c1)S(=O)(=O)c1c(C)nc2sc(C)cn2c1=O the Potency was inconclusive [inhibitor, single point].
For O=C1CCSC2(C(=O)N(Cc3ccc(F)cc3)c3ccccc32)N1c1cccc(F)c1 (centres undefined), the Potency was active: 5.17 µM.
In the case of Cc1nc2c(OCc3ccc(C(F)(F)F)cc3)cccn2c1N(C)C(=O)CCC1CCCC1, the Potency is reported as inconclusive [inhibitor, single point].
In the case of O=C(Cn1cc(C(=O)c2cccs2)c2ccccc21)Nc1ccc(Br)cc1, the Potency is reported as inconclusive [inhibitor, single point].
With CCN(CC)C(=O)C1CCCN(c2ccc([N+](=O)[O-])cc2/C=N/NC(=O)c2cccc(O)c2)C1 (centres undefined) the Potency was inconclusive [inhibitor, single point].
With COc1ccc(Nc2ncnc3ccc(C)cc23)cc1 the Potency was inconclusive [inhibitor, partial curve, poor fit].
With O=C(NCCc1nc2ccccc2[nH]1)/C(=C/c1ccc2c(c1)OCO2)NC(=O)c1ccccc1 the “activity change, negative = growth inhibition” value was inactive: -21.5%.
In the case of CCCCNc1cc(NC(C)=O)cc2cc(OC)c(OC)cc12, the Potency is reported as active: 18.4 µM.
In the case of COc1cc(OC)cc(-c2noc([C@@H]3O[C@H](CO)[C@@H](O)[C@H]3O)n2)c1, the Potency is reported as inconclusive [inhibitor, partial curve].
For COc1ccc(-c2nc3cnc(Oc4ccccc4)nc3n(CCC#N)c2=O)cc1, the activity change, negative = growth inhibition was inconclusive: -30.8% [inhibitor].
In the case of O=C(/C=C/c1cn(-c2ccccc2)nc1-c1cccc(Cl)c1)N1CCN(c2ccccn2)CC1, the Potency is reported as inconclusive [inhibitor, single point].
In the case of COC(=O)C(NNc1ccccc1)(NC(=O)c1cccc(F)c1)C(F)(F)F (centres undefined), the Potency is reported as inconclusive [inhibitor, single point].
With COc1ccc(C(=O)Oc2cc(-c3ccc(OC)c(OC)c3)cc(=O)c3c(C)oc(C)c23)cc1 the Potency was inconclusive [inhibitor, single point].
In the case of Cc1cc(C([O-])=C(C(=S)Nc2ccccc2)[n+]2ccccc2)c(C)n1-c1ccccc1, the Potency is reported as inconclusive [inhibitor, single point].
In the case of O=C(N=Nc1c(O)n(Cc2ccccc2)c2ccccc12)c1cc2ccccc2cc1O, the Potency is reported as inconclusive [inhibitor, single point].
With OC[C@@H]1CN(Cc2ccc(Cl)cc2)C[C@H](n2cnc3c(N4CCOCC4)ncnc32)O1 the activity change, negative = growth inhibition was inconclusive: -34.1% [inhibitor].
With CCN(C(=O)COC(=O)CCCc1nc2ccccc2s1)c1c(N)n(Cc2ccccc2)c(=O)[nH]c1=O the Potency was inconclusive [inhibitor, single point].
For COc1ccc(CNC(=O)CN(C)S(=O)(=O)c2ccc3c(c2)c(=O)n(C)c(=O)n3C)cc1, the Potency was inconclusive [inhibitor, partial curve].
In the case of O=C(Nc1c2c(nn1-c1ccccc1)CS(=O)(=O)C2)C1CC1, the “activity change, negative = growth inhibition” value is reported as inactive: -2.2%.
In the case of COc1cccc(C(c2sc3nc(-c4ccco4)nn3c2O)N2CCN(C)CC2)c1 (centres undefined), the “activity change, negative = growth inhibition” value is reported as inactive: 0.117%.
For Cc1noc(C)c1S(=O)(=O)Nc1ccc(C(=O)N2CCN(c3ccc(Cl)cc3)CC2)cc1, the Potency was inconclusive [inhibitor, single point].
For CC(C)N(C)C1CCN(C(=O)Nc2ccc(Cl)c(Cl)c2)CC1, the Potency was inconclusive [inhibitor, single point].
In the case of COc1ccc(Oc2ncc3nc(-c4cccc(C#N)c4)c(=O)n(CCC#N)c3n2)cc1, the Potency is reported as inconclusive [inhibitor, single point].
For C=CCn1c(NCc2cc(C)ccc2O)nc2ccccc21, the Potency was inconclusive [inhibitor, single point].
% is scaled to controls: 0 for no effect and ±100 for the full control effect; potency is read from the fitted curve at half-maximal effect; tags tell the direction and shape of the fitted curve.
